Source: PubChem BioAssay AID1159614 (National Center for Advancing Translational Sciences (NCATS), 2016)
The campaign covered roughly 45,000 compounds. About 65 (0.1%) were called active. Calls come from the whole dose curve; as a rule, active = well fitted activation curve with a large enough effect; inconclusive = small, poorly fitted or top-dose-only effect; inactive = no such curve, though single readings can be large or run the other way. The list shows a part of the results.

Biological target: Galactocerebrosidase (Homo sapiens) (UniProt P54803)
UniProt P54803, sequence (P54803 whole entry, looked up): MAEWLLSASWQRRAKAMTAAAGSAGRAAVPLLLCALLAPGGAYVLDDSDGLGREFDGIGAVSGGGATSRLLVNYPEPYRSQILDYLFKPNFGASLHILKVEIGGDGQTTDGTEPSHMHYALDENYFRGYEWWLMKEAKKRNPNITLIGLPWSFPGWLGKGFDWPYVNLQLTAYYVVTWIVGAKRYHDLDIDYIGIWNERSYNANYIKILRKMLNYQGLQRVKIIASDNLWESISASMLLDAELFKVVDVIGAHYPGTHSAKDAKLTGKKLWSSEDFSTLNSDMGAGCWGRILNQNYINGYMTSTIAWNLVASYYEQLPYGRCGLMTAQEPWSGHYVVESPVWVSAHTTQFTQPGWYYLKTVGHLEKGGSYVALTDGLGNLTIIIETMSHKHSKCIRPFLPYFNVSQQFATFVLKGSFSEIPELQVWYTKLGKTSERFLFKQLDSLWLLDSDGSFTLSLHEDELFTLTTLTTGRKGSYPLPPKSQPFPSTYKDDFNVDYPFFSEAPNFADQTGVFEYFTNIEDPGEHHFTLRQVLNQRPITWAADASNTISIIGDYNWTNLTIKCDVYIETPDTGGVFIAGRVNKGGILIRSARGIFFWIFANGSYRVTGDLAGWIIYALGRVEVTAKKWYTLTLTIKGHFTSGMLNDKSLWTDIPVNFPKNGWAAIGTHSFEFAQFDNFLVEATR
Assay: A Novel Cell-Based Assay to Identify Small Molecules for B -Galactocerebrosidase; note: 0% is about no effect; nearly all actives have a fitted effect of over 65% in size
Details: 145M-Twi-hGALC-G270D cells (Twitcher mouse brain line with human GALC G270D), HMU-beta-Gal fluorescence, 48 h; series mostly up to 57.5 µM; activation: at the top concentration
Summary of the method: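 Fluorescence readout: HMU-β-gal cleavage by mutant GALC (0.1 mM final, citrate/phosphate pH 5.2 with 1 mg/mL taurocholate), stopped with carbonate/bicarbonate plus Triton X-100. Cells: murine Twitcher 145M-Twi expressing human G270D GALC; qHTS for activators.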

SMILES | activation
CCC(C)(C)C(=O)O[C@H]1C[C@@H](C)C=C2C=C[C@H](C)[C@H](CC[C@@H]3C[C@@H](O)CC(=O)O3)[C@H]21 | inactive: -15.1%
Cc1ccc(Oc2nc3c(c(=O)n(Cc4ccccc4Cl)c(=O)n3C)n2C)cc1C | inactive: -8.55%
COc1ccc(-c2cc3nc(C)c(CCC(=O)Nc4ccc(F)cc4F)c(C)n3n2)c(OC)c1 | inactive: -15.8%
CC(Oc1ccccc1)C(=O)Nc1nnc(S(=O)(=O)N2CCCCCC2)s1 (stereo unspecified) | inactive: -9.09%
COc1ccc(C(=O)Nc2nnc(S(=O)(=O)N3CCN(c4ccc(C)cc4)CC3)s2)cc1 | inactive: -7.59%
Cc1ccccc1C(=O)Nc1cccc(-c2cn3cccnc3n2)c1 | inactive: -22.6%
Cc1cc(=O)n(CC(=O)N2CCN(c3ccc(F)cc3)CC2)c2c1c(C)nn2C | inactive: -38.2%
COc1ccc(NCc2cc3ccc(OC)cc3n(CC(=O)Nc3cc(Cl)ccc3C)c2=O)cc1 | inactive: -15.7%
CC(=O)c1ccc(N2CCN(C(=O)CCS(=O)(=O)c3ccc4c(c3)oc(=O)n4C)CC2)cc1 | inactive: -11.4%
CCOc1ccc(N2CC(C(=O)NCc3nnnn3-c3ccc(C)c(C)c3)CC2=O)cc1 (stereo unspecified) | inactive: -18.5%
Nc1c(-c2nc(-c3ccc(F)cc3)cs2)c2ccccn2c1C(=O)c1ccc2c(c1)OCO2 | inactive: -7.63%
CCOc1ccc(NS(=O)(=O)c2ccc3[nH]cc(C(=O)NCC4CCCO4)c(=O)c3c2)cc1 (stereo unspecified) | inactive: -10.8%
CCc1cccc(NC(=O)CN(C)S(=O)(=O)c2cccc3cccnc23)c1 | inactive: -6.71%
CC1CCc2c(sc(NC(=O)c3cc4nc(-c5ccc(Cl)cc5)cc(C(F)(F)F)n4n3)c2C#N)C1 (stereo unspecified) | inactive: -16.5%
Nc1ccc(C(=O)O)c(O)c1 | inactive: -12.6%
CCSc1ncc(Cl)c(C(=O)Nc2sc3c(c2C(=O)NC)CCCC3)n1 | inactive: -22.4%
CC(Oc1ccccc1F)C(=O)Nc1ccc(-c2nc3ccccc3s2)cc1 (stereo unspecified) | inactive: 19.8%
Cc1ccc(Cl)cc1NC(=O)CN1C(=O)C(C)(C)c2cc(S(=O)(=O)N3CCCCC3)ccc21 | inactive: -9.21%
CC(=O)c1cccc(NC(=O)c2cc3c(s2)-c2c(C)cccc2OC3)c1 | inactive: 4.86%
COc1ccc(S(=O)(=O)c2cnc(SCC(=O)Nc3cc(F)ccc3C)[nH]c2=O)cc1Cl | inactive: -0.751%
CCC1CCCCN1C(=O)c1sc(-n2nc(C)c(Cc3ccccc3)c2C)nc1C (stereo unspecified) | inactive: -27.4%
CCc1ccc2c(c1)NC(c1ccc(OC)cc1)=NC(c1ccncc1)=N2 | inactive: -12.6%
CCOC(=O)c1ccc(OC(=O)c2cn(-c3cccc(OC)c3)c(=O)c3ccccc23)cc1 | inactive: 1.53%
COc1cc(/C=C/c2nc(C#N)c(N3CCC(C)CC3)o2)cc(OC)c1OC | inactive: -3.5%

SMILES | activation
CCOc1ccccc1NC(=O)C(C)N(c1ccccc1)S(C)(=O)=O (stereo unspecified) | inactive: 2.31%
CC(C)CCN(C(=O)Nc1ccc(Cl)c(Cl)c1)C(C)c1cccs1 (stereo unspecified) | inactive: -13.2%
COc1cccc(OC(=O)CSc2nnc(-c3ccc4c(c3)OCO4)o2)c1 | inactive: -0.866%
Cc1cccc(-c2nc3c4ccccc4nc(NCc4ccc(F)cc4)n3n2)c1 | inactive: -7.24%
O=C1Nc2ccc(Cl)cc2[C@@](C#CC2CC2)(C(F)(F)F)O1 | inactive: -11.4%
CCOC(=O)c1c(S(=O)(=O)NCC(=O)NCc2ccccc2)c(C)n(C)c1C | inactive: -4.55%
Cc1ncc(CO)c(CN)c1O | inactive: -10.1%
COc1ccc(NC(=O)C(NC(=O)/C=C\c2ccc3c(c2)OCO3)c2ccccc2)cc1 (stereo unspecified) | inactive: -6.92%
Cc1ccc2c(c1)N(CCCC(=O)NCc1cccc(F)c1)C(=O)CO2 | inactive: 1.21%
CSc1ncc(C(=O)N2CCN(c3cccc(C(F)(F)F)c3)CC2)c(C)n1 | inactive: 2.15%
O=C(c1ccccc1)c1ccccc1 | inactive: -13.2%
COc1cccc(-n2c(=O)c3sc4ccccc4c3n(CC(=O)Nc3ccccc3C)c2=O)c1 | inactive: -20.1%
CCCN(CCC)CCCNC(=O)c1cc2c(=O)[nH]c3ccccc3c2n1C | inactive: -18%
COc1ccc(C2N3CC4(C)CN2CC(c2ccccc2)(C3)C4=O)cc1OC (stereo unspecified) | inactive: -7.77%
COc1ccc(C2CC(=O)c3cc(-c4nc(-c5cccc([N+](=O)[O-])c5)cs4)c(=O)n(-c4ccc(OC)cc4)c3C2)cc1 (stereo unspecified) | inactive: -12%
O=C(CSc1c2c(nc3cc(Cl)ccc13)CCCC2)NCc1ccccc1Cl | inactive: -13.4%
Cc1ccc(NC(=O)C2CCN(S(=O)(=O)c3cc(-c4noc(C)n4)ccc3C)CC2)c(C)c1 | inactive: -1.56%
CC(CNC(=O)CCS(=O)(=O)c1cc2c(cc1Cl)NC(=O)CO2)c1ccccc1 (stereo unspecified) | inactive: -11.1%
CCOC(=O)c1ccccc1NC(=O)CCc1nc(-c2ccc(C)cc2)no1 | inactive: -24.9%
O=C1c2ccccc2-c2onc3c(NCCO)cc(NC4CCCCC4)c1c23 | inactive: -7%
COc1ccc(C(CNC(=O)COc2cc(C)cc(C)c2)N2CCOCC2)cc1 (stereo unspecified) | inactive: -4.62%
Cc1c(C(=O)Nc2ccc(F)cc2F)sc2nc3n(c(=O)c12)N=C(c1ccccc1)CS3 | inactive: -12%
CC(Sc1oc(-c2cccs2)nc1S(=O)(=O)c1ccccc1)c1ccccc1 (stereo unspecified) | inactive: -9.82%
Cn1nccc1C(=O)NCc1ccc2c(c1)CCN2C(=O)c1ccc(Cl)cc1 | inactive: -16%

SMILES | activation
CCc1ccc(Oc2c(C(F)(F)F)oc3c(CN4CCCC(C)C4)c(O)ccc3c2=O)cc1 (stereo unspecified) | inactive: -12%
COc1ccc(N2CCN(c3csc4ccccc4c3=O)CC2)cc1 | inactive: -8.1%
CCc1ccc(NC(=O)c2nn(-c3ccc(OC)cc3)c(=O)c3c2c2ccccc2n3C)cc1 | inactive: -1.39%
CCCCOc1ccc(Cn2c(=O)sc3ccccc32)cc1 | inactive: -6.82%
O=C(Nc1cccc(NC(=O)c2ccccc2Cl)c1)c1cccc(Br)c1 | inactive: -34.6%
C=C(C)C(=O)OCC(O)CO (stereo unspecified) | inactive: -15.3%
CCc1ccccc1NC(=O)C1CCCN(c2cnccn2)C1 (stereo unspecified) | inactive: -14.5%
Cc1ccc(NC(=O)CSc2nc(=O)cc(N)n2CCc2ccccc2)cc1 | inactive: -15.6%
CCOc1nc2cccc(C(=O)O)c2n1Cc1ccc(-c2ccccc2-c2nn[nH]n2)cc1 | inactive: 13.1%
COc1ccc(NC(=O)CCCN2C(=O)COc3ccc(C)cc32)cc1OC | inactive: -5.67%
COc1cc(-c2cc(OC)c3c(C)oc(C)c3c(=O)c2)ccc1OC(=O)c1cccc(Cl)c1 | inactive: 5.13%
CCOC(=O)c1ccc(NC(=O)c2nn(C)c3c2COc2ccccc2-3)cc1 | inactive: -10.6%
Cc1ccc(S(=O)(=O)c2nnn3c2nc(NCc2ccccc2Cl)c2sccc23)cc1 | inactive: -11%
CC(C)c1ccc(OCc2cc(=O)n3c(-c4ccccc4)csc3n2)cc1 | inactive: -25.9%
CCOC(=O)c1c(NC(=O)CSc2cn(CCNC(=O)c3ccccc3F)c3ccccc23)sc2c1CCCC2 | inactive: 9.6%
CCCCN1CCCC[C@H]1C(=O)Nc1c(C)cccc1C | inactive: -9.62%
O=C(Cn1c(=O)n(-c2ccc(Cl)cc2)c(=O)c2c3c(sc21)CCC3)c1ccccc1 | inactive: -19.4%
COCCCNC(=O)c1ccc2c(c1)NC(=O)C(C(C)C)N2 (stereo unspecified) | inactive: -0.304%
CC(C)(C)OC(=O)N1CCC(c2c(C(=O)N3CCN(C(=O)c4ccco4)CC3)cnn2-c2ccccc2Cl)CC1 | inactive: -9.48%
COc1ccc(CCN2C(=O)CN(C3CCC(C)CC3)C(=O)C2c2ccc(OC(C)C)c(OC)c2)cc1OC (stereo unspecified) | inactive: -15.3%
Cc1ccccc1C(=O)c1cccn1CC(=O)NCc1cccc(Cl)c1 | inactive: -13.3%
CC(C)(C)NC(=O)c1oc2ccccc2c1NC(=O)c1ccc(F)cc1 | inactive: -18.7%
Cn1c(SCc2ccccc2F)nc2c([nH]c3ccccc32)c1=O | inactive: -2.11%
CCc1nn(CCCC(=O)NC(C)c2ccccc2)c(=O)c2cc3occc3n12 (stereo unspecified) | inactive: -10.7%

SMILES | activation
CCCCNC(=O)C(CC)Sc1nc2ccccc2c(=O)n1CCc1ccc(OC)c(OC)c1 (stereo unspecified) | inactive: -2.46%
Cc1ccc(Cn2cc(CCC(=O)NCc3ccc(OC(C)C)cc3)c3ccccc32)cc1 | inactive: -8.74%
COCCN(CCOC)c1ncnc2c1c(-c1ccccc1)cn2-c1ccc(C)c(Cl)c1 | inactive: -3.78%
CCn1c2ccccc2c2cc(CN3CCN(Cc4ccccc4C)CC3)ccc21 | inactive: -2.71%
COc1ccc(C)cc1NC(=O)c1ccc2c(c1)nnn2C1CCCC1 | inactive: 6.09%
COc1ccccc1C(=O)Nc1ccc(OCc2cc(=O)n3cc(C)sc3n2)cc1 | inactive: -15.5%
Cc1ccc(NC(=O)Cn2c(=O)n(Cc3ccc4c(c3)OCO4)c(=O)c3ccc(C(=O)NC4CCCCC4)cc32)c(C)c1 | inactive: -21.4%
CCc1ccc(NC(=O)Cn2c(-c3cncs3)nc3ccccc32)cc1 | inactive: -9.4%
c1ccc(OCCn2c(COc3ccccc3)nc3ccccc32)cc1 | inactive: -4.76%
O=C1c2oc3ccccc3c(=O)c2C(c2cccc(Cl)c2)N1c1ccccn1 (stereo unspecified) | inactive: -14%
Cc1ccc2[nH]c(=O)c3cc(C(=O)NCCc4ccc(Cl)cc4)sc3c2c1 | inactive: -17.6%
O=C(c1ccc2c(c1)N(Cc1cccc(Cl)c1)C(=O)c1ccccc1S2)N1CCOCC1 | inactive: -7.45%
Cc1cc2nc(-c3ccc(OCc4ccccc4)cc3)cc(C(F)(F)F)n2n1 | inactive: -6.62%
CCc1ccc(NC(=O)c2cnc3sc(N4CCCC4)nn3c2=O)cc1 | inactive: 0.0045%
CN1CCN(C(CNC(=O)C(=O)Nc2cccc(Cl)c2)c2ccc3c(c2)OCO3)CC1 (stereo unspecified) | inactive: -13.2%
O=C(Cn1c(=O)c2cccn2c2cccnc21)NCc1ccccc1F | inactive: -1.84%
CC1=C(C(=O)Nc2ccc(C)cc2C)C(c2ccccc2F)n2nc(SCC(=O)c3ccc(C)cc3)nc2N1 (stereo unspecified) | inactive: -14.9%
O=C(Nc1ccc(S(=O)(=O)N2CCCCCC2)cc1)c1cc(=O)c2ccccc2o1 | inactive: -9.89%
Cc1cc(-n2c(C)nc3ccccc3c2=O)ccc1NC(=O)c1ccc([N+](=O)[O-])cc1 | inactive: -14.8%
COc1ccccc1NC(=O)C1CCC(CNS(=O)(=O)c2ccc3c(c2)CC(C)N3C(C)=O)CC1 (stereo unspecified) | inactive: -12.3%
Cc1ccc(-c2nn3c(=O)cc(CN4CCN(C(=O)Nc5cc(Cl)ccc5C)CC4)nc3s2)cc1 | inactive: -0.537%
Cc1cc(C)cc(OCC(=O)N(Cc2ccc(C)o2)C2CCS(=O)(=O)C2)c1 (stereo unspecified) | inactive: -15.2%
CCOC(=O)c1c(C)sc(-c2c(-c3ccc(OC)c(F)c3)[nH]c3c2c(=O)[nH]c(=O)n3C)c1O | inactive: -14.3%
Clc1ccc(C(c2ccccc2Cl)C(Cl)Cl)cc1 (stereo unspecified) | inactive: -16.7%
